In patent US20200255516A1 (JIANGSU HENGRUI MEDICINE, published 2020) one finds Kd, koff and kon data, which are given here for eight molecules.

A word on the Kd: it is a measure of binding affinity in units of concentration. What is called koff is the rate constant with which the complex falls apart. A lower koff goes with a long-lived complex. By kon is commonly meant a measure of how fast the partners come together. Low readings indicate slow association, high ones fast association.

T1: human TIGIT (Sinobiological Co., Ltd., Cat. 10917-H08-H) (human, UniProt Q495A1 22-141)
T1 construct: also called huTIGIT; TIGIT-His
T1 sequence (looked up): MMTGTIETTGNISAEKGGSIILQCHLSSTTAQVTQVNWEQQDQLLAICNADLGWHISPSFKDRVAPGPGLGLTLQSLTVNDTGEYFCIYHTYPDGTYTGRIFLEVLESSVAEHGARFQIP

B1: h1711-07 (antibody, human IgG4 S228P, kappa)
heavy: EVQLVQSGAEVKKPGSSVKVSCKASGYTFSNYWIGWVRQAPGQGLEWIGDIYPGGAYTNYNEKFKDRVTITADKSTSTAYMELSSLRSEDTAVYYCARGDYYDSSGRAMDYWGQGTLVTVSSASTKGPSVFPLAPCSRSTSESTAALGCLVKDYFPEPVTVSWNSGALTSGVHTFPAVLQSSGLYSLSSVVTVPSSSLGTKTYTCNVDHKPSNTKVDKRV[… human IgG4 Fc with S228P (EU numbers) …]
light: DIVMTQSPDSLAVSLGERATINCKSSQSLLYSRNQMNYLAWYQQKPGQSPKLLIYWTSTRESGVPDRFSGSGSGTDFTLTISSLQAEDVAVYYCQQYYSYPYTFGGGTKVEIKRTVAAPSVFIFPPSDEQLKSGTASVVCLLNNFYPREAKVQWKVDNALQSGNSQESVTEQDSKDSTYSLSSTLTLSKADYEKHKVYACEVTHQGLSSPVTKSFNRGEC
B2: h1711-09 (antibody)
heavy: EVQLVQSGAEVKKPGSSVKVSCKASGGTFSNYWIGWVRQAPGQGLEWMGDIYPGGAYTNYNEKFKDRVTITADKSTSTAYMELSSLRSEDTAVYYCARGDYYDSSGRAMDYWGQGTLVTVSSASTKGPSVFPLAPCSRSTSESTAALGCLVKDYFPEPVTVSWNSGALTSGVHTFPAVLQSSGLYSLSSVVTVPSSSLGTKTYTCNVDHKPSNTKVDKRV[… human IgG4 Fc with S228P (EU numbers) …]
light: DIVMTQSPDSLAVSLGERATISCKSSQSLLYSRNQMNYLAWYQQKPGQSPKLLIYWTSTRESGVPDRFSGSGSGTDFTLTISSLQAEDVAVYYCQQYYSYPYTFGGGTKVEIKRTVAAPSVFIFPPSDEQLKSGTASVVCLLNNFYPREAKVQWKVDNALQSGNSQESVTEQDSKDSTYSLSSTLTLSKADYEKHKVYACEVTHQGLSSPVTKSFNRGEC
B3: h1711-08 (antibody, human IgG4 S228P, kappa)
heavy: EVQLVQSGAEVKKPGSSVKVSCKASGYTFSNYWIGWVRQAPGQGLEWIGDIYPGGAYTNYNEKFKDRVTITADKSTSTAYMEFSSLRSEDTAVYYCTRGDYYDSSGRAMDYWGQGTLVTVSSASTKGPSVFPLAPCSRSTSESTAALGCLVKDYFPEPVTVSWNSGALTSGVHTFPAVLQSSGLYSLSSVVTVPSSSLGTKTYTCNVDHKPSNTKVDKRV[… human IgG4 Fc with S228P (EU numbers) …]
light: DIVMTQSPDSLAVSLGERATINCKSSQSLLYSRNQMNYLAWYQQKPGQSPKLLIYWTSTRESGVPDRFSGSGSGTDFTLTISSLQAEDVAVYYCQQYYSYPYTFGGGTKVEIKRTVAAPSVFIFPPSDEQLKSGTASVVCLLNNFYPREAKVQWKVDNALQSGNSQESVTEQDSKDSTYSLSSTLTLSKADYEKHKVYACEVTHQGLSSPVTKSFNRGEC
B4: h1711-05 (antibody)
heavy: EVQLVQSGAEVKKPGSSVKVSCKASGGTFSNYWIGWVRQAPGQGLEWMGDIYPGGAYTNYNEKFKDRVTITADKSTSTAYMELSSLRSEDTAVYYCARGDYYDSSGRAMDYWGQGTLVTVSSASTKGPSVFPLAPCSRSTSESTAALGCLVKDYFPEPVTVSWNSGALTSGVHTFPAVLQSSGLYSLSSVVTVPSSSLGTKTYTCNVDHKPSNTKVDKRV[… human IgG4 Fc with S228P (EU numbers) …]
light: DIVMTQSPDSLAVSLGERATINCKSSQSLLYSRNQMNYLAWYQQKPGQSPKLLIYWTSTRESGVPDRFSGSGSGTDFTLTISSLQAEDVAVYYCQQYYSYPYTFGGGTKVEIKRTVAAPSVFIFPPSDEQLKSGTASVVCLLNNFYPREAKVQWKVDNALQSGNSQESVTEQDSKDSTYSLSSTLTLSKADYEKHKVYACEVTHQGLSSPVTKSFNRGEC
B5: h1711-12 (antibody, human IgG4 S228P, kappa)
heavy: EVQLVQSGAEVKKPGSSVKVSCKASGYTFSNYWIGWVRQAPGQGLEWIGDIYPGGAYTNYNEKFKDRVTITADKSTSTAYMEFSSLRSEDTAVYYCTRGDYYDSSGRAMDYWGQGTLVTVSSASTKGPSVFPLAPCSRSTSESTAALGCLVKDYFPEPVTVSWNSGALTSGVHTFPAVLQSSGLYSLSSVVTVPSSSLGTKTYTCNVDHKPSNTKVDKRV[… human IgG4 Fc with S228P (EU numbers) …]
light: DIVMTQSPDSLAVSLGERATISCKSSQSLLYSRNQMNYLAWYQQKPGQSPKLLIYWTSTRESGVPDRFSGSGSGTDFTLTISSLQAEDVAVYYCQQYYSYPYTFGGGTKVEIKRTVAAPSVFIFPPSDEQLKSGTASVVCLLNNFYPREAKVQWKVDNALQSGNSQESVTEQDSKDSTYSLSSTLTLSKADYEKHKVYACEVTHQGLSSPVTKSFNRGEC
B6: h1711-06 (antibody, human IgG4 S228P, kappa)
heavy: EVQLVQSGAEVKKPGSSVKVSCKASGGTFSNYWIGWVRQAPGQGLEWIGDIYPGGAYTNYNEKFKDRVTITADKSTSTAYMELSSLRSEDTAVYYCARGDYYDSSGRAMDYWGQGTLVTVSSASTKGPSVFPLAPCSRSTSESTAALGCLVKDYFPEPVTVSWNSGALTSGVHTFPAVLQSSGLYSLSSVVTVPSSSLGTKTYTCNVDHKPSNTKVDKRV[… human IgG4 Fc with S228P (EU numbers) …]
light: DIVMTQSPDSLAVSLGERATINCKSSQSLLYSRNQMNYLAWYQQKPGQSPKLLIYWTSTRESGVPDRFSGSGSGTDFTLTISSLQAEDVAVYYCQQYYSYPYTFGGGTKVEIKRTVAAPSVFIFPPSDEQLKSGTASVVCLLNNFYPREAKVQWKVDNALQSGNSQESVTEQDSKDSTYSLSSTLTLSKADYEKHKVYACEVTHQGLSSPVTKSFNRGEC
B7: h1711-10 (antibody, human IgG4 S228P, kappa)
heavy: EVQLVQSGAEVKKPGSSVKVSCKASGGTFSNYWIGWVRQAPGQGLEWIGDIYPGGAYTNYNEKFKDRVTITADKSTSTAYMELSSLRSEDTAVYYCARGDYYDSSGRAMDYWGQGTLVTVSSASTKGPSVFPLAPCSRSTSESTAALGCLVKDYFPEPVTVSWNSGALTSGVHTFPAVLQSSGLYSLSSVVTVPSSSLGTKTYTCNVDHKPSNTKVDKRV[… human IgG4 Fc with S228P (EU numbers) …]
light: DIVMTQSPDSLAVSLGERATISCKSSQSLLYSRNQMNYLAWYQQKPGQSPKLLIYWTSTRESGVPDRFSGSGSGTDFTLTISSLQAEDVAVYYCQQYYSYPYTFGGGTKVEIKRTVAAPSVFIFPPSDEQLKSGTASVVCLLNNFYPREAKVQWKVDNALQSGNSQESVTEQDSKDSTYSLSSTLTLSKADYEKHKVYACEVTHQGLSSPVTKSFNRGEC
B8: h1711-11 (antibody, human IgG4 S228P, kappa)
heavy: EVQLVQSGAEVKKPGSSVKVSCKASGYTFSNYWIGWVRQAPGQGLEWIGDIYPGGAYTNYNEKFKDRVTITADKSTSTAYMELSSLRSEDTAVYYCARGDYYDSSGRAMDYWGQGTLVTVSSASTKGPSVFPLAPCSRSTSESTAALGCLVKDYFPEPVTVSWNSGALTSGVHTFPAVLQSSGLYSLSSVVTVPSSSLGTKTYTCNVDHKPSNTKVDKRV[… human IgG4 Fc with S228P (EU numbers) …]
light: DIVMTQSPDSLAVSLGERATISCKSSQSLLYSRNQMNYLAWYQQKPGQSPKLLIYWTSTRESGVPDRFSGSGSGTDFTLTISSLQAEDVAVYYCQQYYSYPYTFGGGTKVEIKRTVAAPSVFIFPPSDEQLKSGTASVVCLLNNFYPREAKVQWKVDNALQSGNSQESVTEQDSKDSTYSLSSTLTLSKADYEKHKVYACEVTHQGLSSPVTKSFNRGEC

The target in this assay is T1, human TIGIT (Sinobiological Co., Ltd., …). Description: SPR (Biacore), captured antibody, TIGIT-His as analyte. On the technique in general: In SPR one partner is held on a chip, and binding of the other changes the refractive index at the surface.
In the case of B1, the Kd amounted to 0.485 nM, the off-rate constant (koff) was 0.000732 s⁻¹ and the on-rate (kon) worked out at 1.51e+06 M⁻¹ s⁻¹.

B2 came in with a Kd of 1.19 nM, a koff of 0.00185 s⁻¹ and a kon of 1.55e+06 M⁻¹ s⁻¹.

As to B3, the dissociation constant Kd came to 0.207 nM, the koff turned out to be 0.000441 s⁻¹ and the kon came to 2.13e+06 M⁻¹ s⁻¹.

As for B4, binding was characterised by a dissociation constant (Kd) of 1.22 nM, the dissociation rate constant (koff) is 0.00186 s⁻¹ and the on-rate (kon) is 1.52e+06 M⁻¹ s⁻¹.

B5 had a Kd of 0.205 nM, a koff of 0.000431 s⁻¹ and a kon of 2.1e+06 M⁻¹ s⁻¹.

For B6, binding was characterised by a dissociation constant (Kd) of 1.05 nM, the dissociation rate constant (koff) was determined as 0.00152 s⁻¹ and the on-rate (kon) came to 1.46e+06 M⁻¹ s⁻¹.

As to B7, the equilibrium dissociation constant (Kd) was 1.03 nM, the koff amounted to 0.00152 s⁻¹ and the kon worked out at 1.47e+06 M⁻¹ s⁻¹.

With B8, binding was put at a Kd of 0.494 nM, the koff amounted to 0.000852 s⁻¹ and the kon worked out at 1.72e+06 M⁻¹ s⁻¹.
